Screen size: about 310,000 compounds; about 14,000 (4.5%) showed an effect of 50% or more. The effect is printed as a negative number. This is one part of the list.
target: human ether-à-go-go-related gene (hERG) potassium channel (human, UniProt Q12809); experiment: primary screen, population patch clamp on CHO cells stably expressing hERG
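Note: peak tail current of the secondary pulse compared with the same well before compound.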

Chain of human ether-à-go-go-related gene (hERG) potassium channel (Q12809 whole entry, looked up): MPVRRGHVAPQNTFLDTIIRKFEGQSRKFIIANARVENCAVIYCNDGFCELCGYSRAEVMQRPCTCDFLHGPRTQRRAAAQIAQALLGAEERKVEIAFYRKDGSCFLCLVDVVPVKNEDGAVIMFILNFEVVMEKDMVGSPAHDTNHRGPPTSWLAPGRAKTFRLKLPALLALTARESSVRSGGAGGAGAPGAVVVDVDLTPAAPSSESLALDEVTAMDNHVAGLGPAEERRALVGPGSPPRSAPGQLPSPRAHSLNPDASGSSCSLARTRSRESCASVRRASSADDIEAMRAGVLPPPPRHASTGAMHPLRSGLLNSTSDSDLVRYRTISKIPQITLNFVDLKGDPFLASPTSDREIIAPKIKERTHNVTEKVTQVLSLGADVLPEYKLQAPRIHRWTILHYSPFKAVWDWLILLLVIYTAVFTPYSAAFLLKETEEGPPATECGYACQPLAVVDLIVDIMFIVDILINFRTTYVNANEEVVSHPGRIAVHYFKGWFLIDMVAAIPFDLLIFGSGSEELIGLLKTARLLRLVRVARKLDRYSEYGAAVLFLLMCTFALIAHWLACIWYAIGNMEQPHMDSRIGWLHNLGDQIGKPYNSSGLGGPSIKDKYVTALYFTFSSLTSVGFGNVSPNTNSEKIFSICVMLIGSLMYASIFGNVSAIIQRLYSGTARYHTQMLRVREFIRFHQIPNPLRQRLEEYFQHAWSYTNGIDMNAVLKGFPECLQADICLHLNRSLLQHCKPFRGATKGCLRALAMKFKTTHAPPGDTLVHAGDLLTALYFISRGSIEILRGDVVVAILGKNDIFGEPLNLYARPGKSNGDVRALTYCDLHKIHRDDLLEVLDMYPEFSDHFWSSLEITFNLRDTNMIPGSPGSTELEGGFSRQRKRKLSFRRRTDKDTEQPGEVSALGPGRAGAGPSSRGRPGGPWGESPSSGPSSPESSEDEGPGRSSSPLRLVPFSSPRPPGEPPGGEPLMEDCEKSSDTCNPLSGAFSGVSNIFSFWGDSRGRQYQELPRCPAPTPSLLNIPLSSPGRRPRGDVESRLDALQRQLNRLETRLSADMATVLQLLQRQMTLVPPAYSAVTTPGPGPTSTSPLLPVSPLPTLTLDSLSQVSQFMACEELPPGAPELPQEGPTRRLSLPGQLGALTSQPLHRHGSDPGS

SMILES | hERG current change (%, negative = inhibition) at 10uM [%]
COc1cccc(/C=C2\SC(=S)N(CCCC(=O)N3CCCCC3CCO)C2=O)c1 (centres unmarked) | 1.1
CCCNS(=O)(=O)c1ccc(CCC(=O)NCc2ccc3c(c2)OCO3)cc1 | -41
O=S(=O)(c1cc(Cl)ccc1Cl)N1CCNCC1 | -0.903
O=S(=O)(c1ccc(Br)cc1)N1CCN=C1SCc1cccnc1 | -15.4
CCOC(=O)c1[nH]c(COC(=O)CCCOc2ccccc2)c(C(=O)OCC)c1C | -1.62
N#C/C(=C\c1c(N2CCN(Cc3ccccc3)CC2)nc2ccccn2c1=O)S(=O)(=O)c1ccccc1 | 0.944
O=C(C1CC1)N1c2ccccc2Sc2ccccc21 | 7.2
CCN1CCN(CC2CC3C=CC2C3)CC1 (centres unmarked) | 17.3
CC(C)c1ccc(NC(=O)C2CCCN(S(=O)(=O)c3cnc[nH]3)C2)cc1 (centres unmarked) | 14.4
COc1ccccc1CN1CC(C(=O)NCCc2ccc(Cl)cc2)CC1=O (centres unmarked) | -5.32
N/C(=N\OC(=O)Cc1ccc([N+](=O)[O-])cc1)c1cccc(Br)c1 | 3.08
CN1CCN(c2ccc(NC(=O)COc3ccccc3Cl)cc2)CC1 | -29.2
O=C(CNC(=O)c1ccc(Cl)cc1)N/N=C/C=C/c1ccccc1 | 5.4
C/C(=N\NC(=O)CSc1nc(C)cc(C)n1)c1ccc2c(c1)OCCO2 | 18.3
CC(CN1CCOCC1)OC(=O)c1ccccc1Cl.Cl (centres unmarked) | 12
Cc1cccc(C)c1NC(=O)Cn1c(=O)n(CCCC(=O)NC2CCN(Cc3ccccc3)CC2)c(=O)c2ccccc21 | -58.6
COc1cccc(/C(O)=C2/C(=O)C(=O)N(Cc3ccco3)C2c2ccncc2)c1 (centres unmarked) | 15.2
O=C(Nc1ccc(S(=O)(=O)N2CCOCC2)cc1)c1ccc2c(c1)OCO2 | -0.814
COc1ccc(OCc2nc3ccccc3n2C(C)C)cc1 | -19

SMILES | hERG current change (%, negative = inhibition) at 10uM [%]
Cc1ccc(C)c(S(=O)(=O)NCCOC(=O)Nc2sc(=S)n(C)c2C)c1 | -7.36
CCc1cc(C(=O)c2ccccc2OC)c(N)s1 | -1.1
CCOC(=O)c1ccc(NC(=S)NCCc2ccccc2)cc1 | 4.14
CC(C)(C)SCCNC(=O)c1ccc(NS(C)(=O)=O)cc1 | -16.6
O=C(O)CCC(=O)NNC(=O)CCCOc1ccc(Cl)cc1Cl | -15.3
COc1ccc2c(c1)CCc1cc(C(=O)O)sc1-2 | -10
CCOc1ccc(N(CC(=O)NC2CCCC2)C(=O)CCC(=O)Nc2nccs2)cc1 | 2.94
CC1CCN(C(=O)c2ccc(NS(=O)(=O)c3cccc4cccnc34)cc2)CC1 | -25.2
CO/N=C(\C(=O)N[C@@H]1C(=O)N2C(C(=O)[O-])=C(COC(C)=O)CS[C@H]12)c1csc(N)n1.[Na+] | 17.4
Cc1ccccc1OCc1nc2ccccc2c(=O)n1N | 1.67
CN(CC(=O)Nc1ccc(F)cc1)CC(=O)N1CCCCC1 | -1.35
CCOC(=O)c1c(NC(=O)C2C3C=CC(C3)C2C(=O)O)sc2c1CCC(CC)C2 (centres unmarked) | -30.6
CCOc1ccc(NC(=O)N2CCC(C(=O)c3ccc(F)cc3)CC2)cc1 | -20.8
Cc1ccc(C)c(OCCn2cc(/C=C(\C#N)C(=O)NCc3ccco3)c3ccccc32)c1 | 9.8
CC1CCCC(C)N1c1ccc(S(=O)(=O)N2CCOCC2)cc1Cl (centres unmarked) | 11.5
Br.CCOC(=O)CN1C2=NCCN2c2ccccc21 | 18.1
CCc1nnc(NC(=O)c2ccc3ccccc3n2)s1 | 1.35
CC(C)CNS(=O)(=O)c1cc(C(=O)OCC(=O)N(C)C2CCS(=O)(=O)C2)c(Cl)cc1Cl (centres unmarked) | -13
COc1ccc(NC(=O)CN(C)CC(=O)Nc2cccc(S(=O)(=O)N(C)c3ccccc3)c2)cc1 | -18.4

SMILES | hERG current change (%, negative = inhibition) at 10uM [%]
Cc1ccnc2nc(C(=O)N3CCN(c4ccc(F)cc4)CC3)nn12 | -17.7
Cc1ccc(S(=O)(=O)NCc2ccncc2)cc1 | 1.24
CCN(C(=O)COC(=O)c1c(C)nn(-c2ccccc2)c1C)C1CCS(=O)(=O)C1 (centres unmarked) | 14.8
CCC(c1nnnn1CCOC)N1CCN(Cc2ccccc2OC)CC1.Cl (centres unmarked) | -6.05
CC1Sc2ccc(C(=O)O)cc2NC1=O (centres unmarked) | 16.1
Cn1cc(/C=C2/SC(=O)N(CC(=O)Nc3ccc4c(c3)OCO4)C2=O)c2ccccc21 | 0.46
CCOC(=O)c1cc(C)sc1NC(=O)CSc1nccn1C | -19.9
Cc1ccc(C(=O)NCC(=O)OCC(=O)Nc2ccccc2[N+](=O)[O-])cc1 | -34.3
CCCCCCn1cc(C(=O)O)c(=O)c2cc(F)c(N3CCN(C(=O)OCC)CC3)cc21 | 10.8
COc1ccccc1OCC(=O)Nc1ccc2c(c1)n(C)c(=O)n2C | 4.41
CCOc1ccc(CCNC(=O)c2c(C)noc2C)cc1OCC | 3.04
COc1cc(NC(=O)Cn2ncc3c2-c2ccccc2OC3)cc(OC)c1OC | -0.453
Cc1nc2ccccc2c(=O)n1-c1cc([N+](=O)[O-])cc([N+](=O)[O-])c1 | 5.95
COC(=O)c1cc2ccccn2c2c(C(=O)OC)c(C(=O)OC)cc1-2 | 20.1
CC(C(=O)N(C)C1CCS(=O)(=O)C1)N1C(=O)/C(=C/c2ccco2)SC1=S (centres unmarked) | -16.6
CCOC(=O)COc1c(OC)cc(Cl)cc1C1NC(=O)NC(C)=C1C(C)=O (centres unmarked) | -3.27
CN1CCNC(=O)C1CC(=O)NCC1(c2ccccc2)CCCCC1 (centres unmarked) | -0.148
CCC(C)Sc1nc(O)c(Cc2ccccc2)c(=O)[nH]1 (centres unmarked) | -5.35
